# In the supplement of paper PMC3334620:
# In all, about 33,000 sequences were measured (“E-score (-0.5 to 0.5)”: median about -0.012, highest 2% from about 0.27 on). Some of the results follow.
# Molecular target: T1, Vhr1 (UniProt P40522)
# T1 sequence: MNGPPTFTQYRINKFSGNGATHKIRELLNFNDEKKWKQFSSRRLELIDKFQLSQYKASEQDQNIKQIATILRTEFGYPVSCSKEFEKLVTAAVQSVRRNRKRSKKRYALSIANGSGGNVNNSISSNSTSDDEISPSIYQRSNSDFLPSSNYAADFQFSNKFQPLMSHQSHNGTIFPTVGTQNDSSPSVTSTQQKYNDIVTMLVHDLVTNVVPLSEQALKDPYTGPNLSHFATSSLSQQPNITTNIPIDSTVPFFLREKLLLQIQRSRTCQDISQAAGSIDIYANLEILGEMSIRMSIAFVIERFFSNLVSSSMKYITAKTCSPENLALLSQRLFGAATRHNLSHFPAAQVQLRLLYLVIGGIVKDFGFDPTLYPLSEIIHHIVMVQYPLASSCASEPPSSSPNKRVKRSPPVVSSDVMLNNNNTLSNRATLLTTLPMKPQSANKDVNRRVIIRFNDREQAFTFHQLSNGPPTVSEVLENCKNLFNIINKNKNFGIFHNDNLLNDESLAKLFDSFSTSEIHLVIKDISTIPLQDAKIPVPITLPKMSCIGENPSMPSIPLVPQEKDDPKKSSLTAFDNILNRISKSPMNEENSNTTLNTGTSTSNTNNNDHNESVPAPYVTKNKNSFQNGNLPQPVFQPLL
# Experiment: PBM E-score (8-mer binding enrichment) (E-score (-0.5 to 0.5)); higher = stronger / more preferred TF binding; most listed sequences are background and not binding sites
# Conditions: protein concentration: 200 nM; construct: GST-full length
# How it was run: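 For each ungapped eight-base word taken together with its reverse complement, the Universal PBM Analysis Suite assigned an E-score. Binding data came from GST-tagged yeast transcription factors, applied at about 100-200 nM, on universal all-10-mer Agilent arrays made double-stranded by primer extension. Fluorescent anti-GST marked bound protein, and scans were normalised with masliner.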
row,Sequence,PBM E-score
1,ACACACAT,0.275
2,GACTCTCA,0.271
3,CAGATAGC,-0.11
4,GGCCGGGA,0.00327
5,TACGTCTA,-0.145
6,AGGTCGTC,-0.00709
7,AATCACAT,0.17
8,AAGTACTT,-0.168
9,GCTGCGAA,-0.015
10,CGACACAA,0.134
11,ACACAGCC,0.232
12,GGTTCTTA,-0.0254
13,AGATCACT,0.077
14,GCTAGGAC,-0.117
15,TCCCTCAA,-0.26
16,ACGTGTCG,-0.101
17,GATTCGGA,0.162
18,ATGGTCGC,0.146
19,CATTGGCC,-0.134
20,GGATATAA,0.227
21,CCTACCCA,-0.0337
22,CATCTAGA,0.0398

row,Sequence,PBM E-score
1,TGTTAACA,0.0688
2,ACTTTTAG,-0.193
3,ACATAAGC,-0.101
4,GTGCACCA,-0.0256
5,ATACTCAG,0.274
6,CCATGATA,0.102
7,AGAGACCT,-0.196
8,GGCGTGAC,0.0985
9,GATGCCGA,-0.0335
10,GCTGGAGA,-0.112
11,AACATCCT,0.0517
12,AGACGGCT,-0.0175
13,GCCGGGTA,0.0324
14,ACACTTGC,0.0493
15,GTATAACA,0.138
16,GCTGAGAC,0.0972
17,CGAGCTAA,-0.0732
18,AGGCCTAT,-0.312
19,GCTAATGA,-0.101
20,GATGCAAA,-0.139
21,GCGGTCCA,-0.158
22,GAGGTCAA,-0.0724

row,Sequence,PBM E-score
1,GAAGAGGC,-0.0818
2,ATCCAACC,0.0162
3,AGCGTAGG,-0.0366
4,CGTCCGGC,-0.0491
5,AAACCGGT,-0.14
6,CCGGTTCA,-0.0875
7,CTAGCATA,-0.0867
8,GATAACTA,0.182
9,AACCCGTA,-0.103
10,CTGAGCGC,-0.0109
11,AAGGAGTC,0.203
12,CGGAAGGA,-0.029
13,ACTGATAC,0.0766
14,ATTGACAC,0.00527
15,AAATCTGC,-0.104
16,GCTCGCCC,0.108
17,ATGGTTCA,0.366
18,CCTTAGAA,-0.267
19,GTTCACAA,0.0201
20,CTTGATCC,0.106
21,AAATGGTA,0.13
22,AAAATGCC,-0.414

row,Sequence,PBM E-score
1,ACACCCTG,0.117
2,AATTCTCG,-0.0319
3,CCCCCGTC,-0.223
4,GGCATCTA,-0.0577
5,GGACGTCA,-0.096
6,ATTCTTAG,-0.158
7,ACAAACTA,0.159
8,AATGTAAT,0.118
9,AGAACGCC,-0.131
10,CCGCGTCC,0.0398
11,GATTAACC,-0.0165
12,AATGCAAA,-0.0769
13,GGCATGAA,-0.0315
14,GCTATCAA,0.11
15,AGGTTATG,0.0825
16,CGCGCGTA,0.0934
17,AACAAATC,0.0441
18,TGTCTCAA,-0.0653
19,GTCTACCA,-0.149
20,TATACCAA,0.171
